Where a name gives a salt, the structure may show the parent alone. Over roughly 2,800 compounds, “cell viability relative to vehicle” has its median near 1.1; the lowest 2% begin near 0.19. This is one part of the list.

Our source for the cell viability values is the supplement of paper PMC10600219.

This assay has as its system NCI-H2228 parental. The experiment in a line: cell viability relative to vehicle (fraction of vehicle); NCI-H2228 is an ALK-positive lung cancer line and DTP means drug-tolerant persister; higher = less growth inhibition. As to conditions: 100 nM; treatment time 6 days. Summed up:
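Parental NCI-H2228 cells and drug-tolerant persister cells (made with 1000 nM of a targeted drug for 13 days) were seeded in 384-well plates. The next day, the 3114-agent TargetMol anti-cancer compound library was added at 100 nM, with DMSO as vehicle. After 6 days, ATP was read with the CellTiter-Glo 3D Cell Viability Assay. Each value is cell viability relative to vehicle-treated cells.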
Turning to `C[C@@H]1CC[C@@]2(OC1)O[C@H]1C[C@H]3[C@@H]4CC=C5C[C@@H](O[C@@H]6O[C@H](CO)[C@@H](O)[C@H](O[C@@H]7O[C@H](CO)[C@@H](O)[C@H](O)[C@H]7O)[C@H]6O[C@@H]6O[C@@H](C)[C@H](O)[C@@H](O)[C@H]6O)CC[C@]5(C)[C@H]4CC[C@]3(C)[C@H]1[C@@H]2C` [Gracillin], the cell viability amounted to 1.17. With `CCCC(C(=O)OCCN(CC)CC)(c1ccccc1)c1ccccc1` [Proadifen hydrochloride], the cell viability came out at 0.924. Take `CN(C)[C@@H](CCOc1cccc2ccccc12)c1ccccc1` [Dapoxetine HCl]: the cell viability turned out to be 1.16.

Turning to `CCCC(CCC)C(=O)O` [Valproic acid sodium salt], the cell viability was found to be 1.03. Then `COC[C@@H](c1ccc(C(F)(F)F)cc1)N1CCN(C2(C)CCN(C(=O)c3c(C)ncnc3C)CC2)C[C@@H]1C` [Vicriviroc maleate], with 1.18.

As to `O=C(NC1CCNCC1)c1n[nH]cc1NC(=O)c1c(Cl)cccc1Cl`, the cell viability was found to be 1.12. Then `CC(C)c1noc(N2CCC(COc3ccc(-c4ccc(S(C)(=O)=O)cc4)nc3)CC2)n1`, with 0.896.

In the case of `NCCC(=O)O` [beta-Alanine], the cell viability was 1.24. In the case of `O=CN1CC/C(=C/c2ccc3c(c2)OCO3)C1=O`, the cell viability turned out to be 1.1. With `COc1cc2c[n+](C)c3c4cc5c(cc4ccc3c2cc1OC)OCO5` [Nitidine chloride], the cell viability stood at 0.548. The same measure for `CC[C@H](Nc1ncnc2[nH]cnc12)c1nc2cccc(F)c2c(=O)n1-c1ccccc1` [Idelalisib]: 1.13; for `CC(C)(C)c1cc(/C=C(\C#N)C(N)=S)cc(C(C)(C)C)c1O` [Tyrphostin AG 879]: 1.14; for `CC(C)=CCC[C@](C)(O[C@@H]1O[C@H](CO[C@@H]2O[C@H](CO)[C@@H](O)[C@H](O)[C@H]2O)[C@@H](O)[C@H](O)[C@H]1O)[C@H]1CC[C@]2(C)[C@@H]1[C@H](O)C[C@@H]1[C@@]3(C)CC[C@H](O[C@@H]4O[C@H](CO)[C@@H](O)[C@H](O)[C@H]4O)C(C)(C)[C@@H]3CC[C@]12C` [Gypenoside XVII]: 0.981. Regarding `CCC(=O)NCC[C@@H]1CCc2ccc3c(c21)CCO3` [Ramelteon], the cell viability worked out at 1.2.

For the compound `COC1=CC(=O)C[C@@H](C)[C@]12Oc1c(Cl)c(OC)cc(OC)c1C2=O` [Griseofulvin], the cell viability came to 1.22. The same measure for `Oc1cccc(O)c1O` [Pyrogallol]: 1.01; for `NS(=O)(=O)NCCNc1nonc1/C(=N/O)Nc1ccc(F)c(Br)c1` [Epacadostat]: 1.05; for `O=S(=O)(NCCNC/C=C/c1ccc(Br)cc1)c1cccc2cnccc12`: 1.15. `COc1ccc(-c2coc3cc(O)cc(O)c3c2=O)cc1` [Biochanin A]: the cell viability is 1.12.

Consider `N=C1S/C(=C\c2ccc(-c3ccc4c(c3)C(=O)NC4=O)o2)C(=O)N1c1ccc(Br)cc1` [Bioymifi], for which the cell viability was determined as 1.12. As to `CC(C)=CC[C@@H](OC(=O)C=C(C)C)C1=CC(=O)c2c(O)ccc(O)c2C1=O` [Dimethylacrylshikonin], the cell viability was determined as 1.01.

Turning to `CN(C)CCC(c1ccc(Cl)cc1)c1ccccn1` (stereo not given) [Chlorpheniramine maleate], the cell viability came out at 1.22.

With `COc1cc(N)c(Cl)cc1C(=O)NC1CCN(CCCOc2ccc(F)cc2)CC1OC` (stereo not given) [Cisapride], the cell viability turned out to be 0.896. The same measure for `Fc1ccc(-n2cc(CCCCN3CCC4(CC3)OCc3ccccc34)c3ccccc32)cc1` [Siramesine hydrochloride]: 1.13; for `COc1cccc(OCCCN)c1-c1cc(Nc2cnc(C#N)cn2)n[nH]1` [Prexasertib dihydrochloride]: 0.169. For `COc1ccc2cc1Oc1ccc(cc1)C[C@H]1c3c(cc4c(c3Oc3cc5c(cc3OC)CCN(C)[C@@H]5C2)OCO4)CCN1C` [Cepharanthine], the cell viability was determined as 1.01. The same measure for `O=C(O)C1=CO[C@@H](O[C@@H]2O[C@H](CO)[C@@H](O)[C@H](O)[C@H]2O)[C@H]2[C@@H]1C=C[C@]2(O)CO` [Monotropein]: 0.995. As to `NC1=N[C@@]2(c3cc(NC(=O)c4ccc(F)cn4)ccc3F)COC[C@H]2CS1`, the cell viability stood at 1.19. `COC1=C(OC)C(=O)C(C/C=C(\C)CC/C=C(\C)CC/C=C(\C)CC/C=C(\C)CC/C=C(\C)CC/C=C(\C)CC/C=C(\C)CC/C=C(\C)CC/C=C(\C)CCC=C(C)C)=C(C)C1=O` [Coenzyme Q10]: the cell viability was determined as 1.02.

In the case of `COc1ccc(COc2cc3oc(=O)c4cc(C(C)O)ccc4c3cc2OC)cc1` (stereo not given) [Palomid 529], the cell viability came out at 1.04. For `COC(=O)Nc1nc2cc(C(=O)c3ccc(F)cc3)ccc2[nH]1` [Flubendazole], the cell viability was found to be 0.866.

Take `COc1cc2ncnc(Nc3cccc(O)c3)c2cc1OC`: the cell viability came to 1.03. For `OC[C@H]1O[C@@H](Oc2cc3c(O)cc(O)cc3[o+]c2-c2ccc(O)c(O)c2)[C@H](O)[C@@H](O)[C@@H]1O` [Kuromanin chloride], the cell viability stood at 1.18. For `O=C(O)c1ccc(S(=O)(=O)N(Cc2ccc(OC(F)(F)F)cc2)c2ncc(C(F)(F)F)cc2Cl)cc1`, the cell viability worked out at 1.02. Then `COc1cc(N(C)C)cc(CN(C)CCc2ccc([N+](=O)[O-])cc2)c1O` [CDC25 Phosphatase Inhibitor I], with 1.05; and `CCN1CCN(c2cc(-c3ccc(F)cc3)c3c(n2)CCCCCC3)CC1` [Blonanserin], with 1.09. As for `O=C(NNS(=O)(=O)c1ccccc1F)c1cc(F)cc(-c2ccccn2)c1`, the cell viability was found to be 0.971. For `O=C1CCc2c(ccc3ccccc23)O1` [Splitomicin], the cell viability is 1.13. In the case of `CC[C@@H]1C(=O)N(C)c2cnc(Nc3ccc(C(=O)NC4CCN(C)CC4)cc3OC)nc2N1C1CCCC1`, the cell viability stood at 0.167.

Turning to `O=S(=O)(N=Cc1c(O)ccc2ccccc12)c1cccs1`, the cell viability was 1.05. For the compound `Fc1ccc(CNc2ncnc3ccc(F)cc23)cc1` [Spautin-1], the cell viability is 1.05.

With `CCS(=O)(=O)N1CCC([C@@H](C)n2c(C)c(C(=O)NCc3c(OC)cc(C)[nH]c3=O)c3ccccc32)CC1`, the cell viability was 0.907.

`CC(C)(C)NCC(O)c1ccc(O)c(CO)c1` (stereo not given) [Salbutamol]: the cell viability worked out at 0.862. Then `CCCCC[C@H](O)CC(=O)CCc1ccc(O)c(OC)c1` [6-Gingerol], with 1.09; and `CO[C@H]1C[C@@H]2CC[C@@H](C)[C@@](O)(O2)C(=O)C(=O)N2CCCC[C@H]2C(=O)O[C@H]([C@H](C)C[C@@H]2CC[C@@H](OP(C)(C)=O)[C@H](OC)C2)CC(=O)[C@H](C)/C=C(\C)[C@@H](O)[C@@H](OC)C(=O)[C@H](C)C[C@H](C)/C=C/C=C/C=C/1C` [Ridaforolimus], with 0.661.
